Out of some 420,000 compounds screened, about 64,000 (15%) were called active. Inconclusive means that the source gave no clear call. Such entries were picked first, then a sample of the others. The call rests on the fitted dose curve; in most records, active means well fitted inhibition curve with a large enough effect; inconclusive means small, poorly fitted or top-dose-only effect; inactive means flat fitted curve, though single readings scatter. Potencies of inconclusive entries are left out as doubtful fits.
Assay: qHTS for Inhibitors of human tyrosyl-DNA phosphodiesterase 1 (TDP1): qHTS in cells in absence of CPT; further: nearly all actives have a fitted effect of over 55% in size
Conditions: DT40 Tdp1-/- hTDP1 cells, no CPT, ATP luminescence, 48 h; activity change, negative = growth inhibition: at 46.2 µM (top of the series) unless noted
In short: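 Camptothecin absent (DMSO only). Human TDP1-complemented DT40 knockout cells, 400 cells/well, 37 °C for minimum 48 hr; ATP measured via CellTiter-Glo, 30 min dark incubation, luminescence.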
On the % scale 0 is the no-effect control and ±100 the full control effect; potency means the concentration at half of the fitted maximal effect; tags describe the fitted curve by direction and shape.

Compound	Potency	activity change, negative = growth inhibition
CSc1ncnc2c1ncn2CCCN1CCN(Cc2c(C)cc(C)cc2C)CC1	inconclusive [inhibitor, single point]	–
O=C1CSC(c2cn(-c3ccccc3)nc2-c2cc3ccccc3oc2=O)N1Cc1ccco1 (stereo not given)	inconclusive [inhibitor, partial curve]	–
Cc1nc(NCc2cccnc2)c2c3c(sc2n1)CCCC3	inconclusive [inhibitor, single point]	–
CCN1C(=O)/C(=C\N2CCN(C(=O)c3ccco3)CC2)SC1=S	–	inconclusive: -30% [inhibitor]
CCCn1c2ccccc2c2cnn(CC(=O)NC(CCSC)C(=O)OC)c(=O)c21 (stereo not given)	inconclusive [inhibitor, single point]	–
CC(C)n1nnnc1SCC(=O)c1ccc2c(c1)OCCO2	inconclusive [inhibitor, single point]	–
N#CCCN/N=C(\Cc1nc2ccccc2[nH]1)c1ccccc1	inconclusive [inhibitor, single point]	–
O=C(NCC(c1ccccc1)c1ccccc1)c1nn(-c2ccccc2F)nc1CO	inconclusive [inhibitor, full curve]	–
CC(C)CCn1c(O)c(N=NC(=O)c2ccco2)c2ccccc21	inconclusive [inhibitor, partial curve]	–
COc1cccc(C2(c3cccc(OC)c3)CC2C(=O)Nc2ccccc2Cl)c1 (stereo not given)	active: 23.1 µM	–
CC(=O)N1CCCC(C)(C(=O)N(C)Cc2cccc3ccccc23)C1 (stereo not given)	inconclusive [inhibitor, single point]	–
CN(CC(=O)Nc1ccccc1-c1ccccc1)Cc1ccccc1Cl	inconclusive [inhibitor, single point]	–
CCN(CC(=O)Nc1ccc(OC)cc1)C(=O)c1cc(-c2cccs2)nn1-c1ccccc1	active: 16.4 µM	–
O=C(CSc1ccc2nnc(-c3ccccn3)n2n1)Nc1ccccc1C(F)(F)F	–	inactive: 3.27%
CN(C)S(=O)(=O)c1ccc(C(=O)/C=C/c2cccnc2)cc1	active: 20.6 µM	–
C[C@@H]1C[C@H]2[C@@H]3C[C@H](F)C4=CC(=O)C(Cl)=C[C@]4(C)[C@@]3(F)[C@@H](O)C[C@]2(C)[C@@]1(O)C(=O)CO	active: 16.8 µM	–
COc1ccc(Br)cc1CNc1ccc(N2CCOCC2)cc1	inconclusive [inhibitor, partial curve]	–
O=C(Nc1ccc(-c2noc(-c3ccccc3F)n2)cc1)c1cccs1	inconclusive [inhibitor, partial curve, poor fit]	–
CC(=O)Nc1ccc(NC(=O)c2ccc(C)c(S(=O)(=O)Nc3cccc(C)c3)c2)cc1	inconclusive [inhibitor, single point]	–
O=C(NC1CCN(Cc2ccccc2)CC1)c1ccccc1Cl	–	inactive: -0.304%
Cc1c(C(=O)NCCN(C)C)sc2nc3n(c(=O)c12)CCC3	–	inactive: -0.772%
C=CC(=O)Nc1ccc(Nc2nc(NC3CCC(N(C)C)CC3)nc3c2ncn3C(C)C)cc1 (stereo not given)	active: 0.411 µM	–
CCOC(=O)c1nnc2c(-c3ccc(Cl)cc3)c(C)nn2c1C	inconclusive [inhibitor, partial curve]	–
COc1cc(OC)cc(N(C(=O)CNC(=O)c2cccs2)C(C(=O)NCC2CCCO2)c2ccccc2)c1 (stereo not given)	inconclusive [inhibitor, partial curve]	–

Compound	Potency	activity change, negative = growth inhibition
CC(CCO)Nc1nc2c([nH]1)c(=O)n(C)c(=O)n2C (stereo not given)	–	inactive: -0.337%
COc1cc(CN2CCCC(CO)(Cc3cccc(Cl)c3)C2)cc(OC)c1O (stereo not given)	inconclusive [inhibitor, single point]	–
O=C(N1CCCCC1)N1CCN(c2ccc(Cl)cc2)CC1	inconclusive [inhibitor, single point]	–
CC(Oc1cc(-c2ccccc2)cc2ccccc12)C(=O)N1CCOCC1 (stereo not given)	inconclusive [inhibitor, partial curve]	–
Cc1cn(C2OC(COC(=O)c3ccccc3)C(O)C2Cl)c(=O)[nH]c1=O (stereo not given)	inconclusive [inhibitor, partial curve, poor fit]	–
CCN(CC(=O)NCc1ccc(F)cc1)C(=O)/C=C/c1ccco1	inconclusive [inhibitor, partial curve]	–
CC(C)(C)CN1CCNC(=O)C1CC(=O)N1CCOc2ccccc2C1 (stereo not given)	–	inconclusive: -32.2% [inhibitor]
COc1ccc(CCC(=O)NCCc2csc(-c3ccc(Cl)cc3)n2)cc1	inconclusive [inhibitor, single point]	–
COc1cc(C(=O)N/N=C/C2CC=CCC2)cc(OC)c1OC (stereo not given)	–	inactive: -7.53%
COc1cc(OC)cc(C2=Cc3ccc(OC)cc3C(CC(C)=O)N2c2ccc(-c3cccs3)cc2)c1 (stereo not given)	active: 8.2 µM	–
CCc1ccc(/C=C2\SC(=S)N(CCCC(=O)N3CCN(C)CC3)C2=O)cc1	inconclusive [inhibitor, single point]	–
CCOc1ccc(Nc2c(S(=O)(=O)c3ccccc3)cnc3ccccc23)cc1	inconclusive [inhibitor, single point]	–
CN1C[C@@H]2[C@@H]3C(=O)N(Cc4ccccc4)C(=O)[C@@H]3[C@](C)(C1=O)N2C(=O)c1ccccc1	–	inactive: 3.27%
CCC(C)[C@H](N)C(=O)N[C@H]1CCC2C3CC=C4C[C@@H](O)CC[C@]4(C)C3CC[C@@]21C (stereo not given in full)	inconclusive [inhibitor, single point]	–
Cc1ccc(NC(=O)c2nc(S(C)(=O)=O)ncc2N(Cc2ccco2)Cc2ccco2)cc1C	inconclusive [inhibitor, single point]	–
Cc1ccc(N=Nc2c(=O)[nH]n3c(C)cc(C)nc23)cc1	–	inactive: -30.2%
CN(C(=O)COC(=O)CN1C(=O)C2CC=CCC2C1=O)c1ccccc1 (stereo not given)	–	inactive: -9.05%
O=C(COc1ccccc1F)Nc1cc(S(=O)(=O)N2CCOCC2)ccc1N1CCOCC1	–	inactive: -23.8%
O=C(O)CCCn1cc(NC(=O)c2cccc(F)c2)cn1	–	inactive: 3.57%
CN(Cc1ccco1)S(=O)(=O)c1nnc(NC(=O)c2cccc(Cl)c2)s1	inconclusive [inhibitor, partial curve]	–
COc1cc(CC(C#N)(CO)c2nc3ccccc3[nH]2)ccc1OC(F)F (stereo not given)	inconclusive [inhibitor, single point]	–
COc1ccccc1CNC(=O)c1cc(C(=O)CC(C)C)c[nH]1	inconclusive [inhibitor, single point]	–
COc1ccc(C)cc1S(=O)(=O)NC1CCCCC1C (stereo not given)	–	inactive: -25.8%
Cc1ccc(NC(=O)c2c(C)oc3ccc(O)c(CN4CCCCC4)c23)c(C)c1	active: 16.4 µM	–

Compound	Potency	activity change, negative = growth inhibition
O=C(C1CCCN(c2ncnc3c2nc2n3CCCCC2)C1)N1CCN(c2ccc(Cl)cc2)CC1 (stereo not given)	inconclusive [inhibitor, single point]	–
COc1cc(C2c3cc4c(cc3C(O)C3COCC23)OCO4)cc(OC)c1OC (stereo not given)	inconclusive [inhibitor, single point]	–
O=C(CC1SC(=Nc2ccccc2)N(Cc2ccccn2)C1=O)Nc1cccc(Cl)c1 (stereo not given)	inconclusive [inhibitor, single point]	–
Cc1csc(NC(=O)C2=NN(c3ccccc3)C(=O)CC2)n1	–	inactive: 7.13%
CCS(=O)(=O)N1CCN(C(=O)C(c2ccccc2)c2ccccc2)CC1	–	inactive: 4.27%
N#Cc1cc(-c2ccccc2)oc1NC(=O)c1ccccc1	inconclusive [inhibitor, partial curve]	–
CCOC(=O)N1CCC(NC(=O)c2ccc3c(c2)N=C(C)c2ccccc2S3)CC1	inconclusive [inhibitor, single point]	–
Clc1nc(NCc2cccs2)c2[nH]cnc2n1	active: 11.2 µM	–
COc1ccc(C)cc1NC(=O)C(c1ccccc1)N1CCN(CC(=O)N2CCCC2)CC1 (stereo not given)	inconclusive [inhibitor, single point]	–
Cc1cc(N2CCN(C)CC2)n2cc(-c3ccc(F)cc3)nc2n1	–	inconclusive: -37.5% [inhibitor]
Cc1ccc(OCC(=O)NNC(=O)c2ccc3c(=O)n4c(nc3c2)CCC4)cc1	–	inactive: -4.57%
CCn1c(CNC(=O)c2ccc(OC)cc2)nnc1SC	–	inactive: -20.7%
CCn1c2ccccc2c2cc(NC(=O)CSc3nnnn3-c3ccccc3)ccc21	inconclusive [inhibitor, single point]	–
CC1=C(C)CS(=O)N(S(=O)(=O)c2ccc(Cl)cc2)C1 (stereo not given)	active: 2.31 µM	–
COC(=O)C[C@H]1c2cc(F)ccc2S(=O)(=O)N1Cc1ccccc1	inactive	–
COc1ccccc1C(=O)NC(=O)COC(=O)C1CC2CCCC(C1)C2=O (stereo not given)	–	inactive: -9.22%
Cc1cc(Cl)ccc1OCCCC(=O)N1CCN(S(=O)(=O)c2ccccc2)CC1	inconclusive [inhibitor, single point]	–
CCc1ccc(CN2CCC(Oc3ccc(C(=O)NCc4ccccn4)cc3)CC2)o1	inconclusive [inhibitor, single point]	–
COc1ccc(NC(=O)CSc2n[nH]c(-c3ccccn3)n2)cc1	active: 23.1 µM	–
O=C(NCc1ccco1)/C(=C/c1ccc(C(F)(F)F)cc1)c1nc2ccccc2[nH]1	inconclusive [inhibitor, single point]	–
CCN(CC)CCC(c1cc(OC)c(OC)c(OC)c1)c1c(OC)cc(OC)c2ccc(=O)oc12 (stereo not given)	inconclusive [inhibitor, partial curve]	–
CCC(=O)N1CCc2cc(Br)cc(S(=O)(=O)CCC(=O)N(CC)Cc3ccccc3)c21	inconclusive [inhibitor, single point]	–
